How the values were obtained:
Assay in all cases: GST pull-down on glutathione-Sepharose beads, SDS-PAGE, BAS2000
[1] = molecular target: T1, full-length ALEX1 protein, in vitro translated and [^35S]-methionine-labeled (human, UniProt Q9P291 1-453, [^35S]-methionine label (in vitro translation in rabbit reticulocyte lysate))
T1 construct: Full-length, 453 amino acids; also called [^35S]ALEX1; human ALEX1 protein
T1 sequence: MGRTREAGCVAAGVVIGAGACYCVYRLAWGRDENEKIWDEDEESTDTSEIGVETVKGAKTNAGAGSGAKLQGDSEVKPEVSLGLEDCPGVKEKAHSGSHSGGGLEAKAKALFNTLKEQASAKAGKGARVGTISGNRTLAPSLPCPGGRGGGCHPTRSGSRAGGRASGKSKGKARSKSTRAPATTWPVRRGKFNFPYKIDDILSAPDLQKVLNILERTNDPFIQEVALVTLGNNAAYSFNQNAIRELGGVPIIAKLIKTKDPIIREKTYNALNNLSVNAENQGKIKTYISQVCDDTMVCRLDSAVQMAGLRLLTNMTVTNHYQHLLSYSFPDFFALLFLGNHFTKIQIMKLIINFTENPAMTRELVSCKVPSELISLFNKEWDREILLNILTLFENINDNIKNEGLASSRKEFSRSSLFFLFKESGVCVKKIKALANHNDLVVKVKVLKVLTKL
Text: (§1) Interaction between ALEX1 and presenilin-1 (PS1) was investigated by pull-down assay. The large loop region of PS1 protruding into the cytoplasm reported to be the binding site with delta-catenin (PS1-CL: amino acid numbers 263-407 of PS-1 according to accession number L76517), and the N-terminal region (PS1-N: amino acid numbers 1-81 of PS-1 according to accession number L76517) as a negative control respectively were cloned into pGEX-5×-1 by PCR method, and were expressed in E. coli as GST fusion proteins. […] The mixture was centrifuged, unbound protein was discarded, and the beads were resuspended in 500 μl of binding buffer (20 mM Tris/Cl, pH 7.2 at 25° C., 140 mM NaCl, 0.1% Tween-20, 0.1 mM DTT, 4 mg/ml BSA and Complete™ Protease Inhibitor). In vitro-translated, [³⁵S]methionine-labeled (Promega TNT reticulocyte lysate system) ALEX1 was added to the mixture and incubated for 2.5 h at 4° C. to form complexes. Instead of ALEX1, luciferase as a negative control, and delta-catenin (615-1225) and delta-catenin (826-1225) as positive controls were used for same experiments. The beads were washed five times in wash buffer (20 mM Tris/Cl, pH 7.2 at 25° C., 140 mM NaCl, 0.1% Tween-20 and Complete Protease Inhibitor), resuspended in 40 μl of 2×SSC sample buffer and incubated at 90° C. A half of the eluted protein was resolved by SDS-PAGE (4-20%) and visualized by BAS2000.

[2] = molecular target: T2, delta-catenin (826-1225), in vitro translated and [^35S]methionine-labeled (UniProt Q9UQB3 826-1225, [^35S]methionine label)
T2 construct: range 826-1225; Positive control
T2 sequence (looked up): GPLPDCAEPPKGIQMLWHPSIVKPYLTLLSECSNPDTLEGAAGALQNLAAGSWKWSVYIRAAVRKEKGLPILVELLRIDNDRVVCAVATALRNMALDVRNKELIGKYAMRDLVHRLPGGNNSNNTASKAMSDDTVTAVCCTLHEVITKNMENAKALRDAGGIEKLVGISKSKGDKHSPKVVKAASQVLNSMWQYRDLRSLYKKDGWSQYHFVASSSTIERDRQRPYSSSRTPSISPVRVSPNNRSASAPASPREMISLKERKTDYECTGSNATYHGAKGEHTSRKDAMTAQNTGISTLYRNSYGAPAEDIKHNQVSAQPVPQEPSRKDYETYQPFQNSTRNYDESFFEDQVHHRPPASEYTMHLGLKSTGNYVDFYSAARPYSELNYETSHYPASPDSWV
Text: as §1

[3] = molecular target: T3, delta-catenin (615-1225), in vitro translated and [^35S]methionine-labeled (UniProt Q9UQB3 615-1225, [^35S]methionine label)
T3 construct: range 615-1225; Positive control
T3 sequence (looked up): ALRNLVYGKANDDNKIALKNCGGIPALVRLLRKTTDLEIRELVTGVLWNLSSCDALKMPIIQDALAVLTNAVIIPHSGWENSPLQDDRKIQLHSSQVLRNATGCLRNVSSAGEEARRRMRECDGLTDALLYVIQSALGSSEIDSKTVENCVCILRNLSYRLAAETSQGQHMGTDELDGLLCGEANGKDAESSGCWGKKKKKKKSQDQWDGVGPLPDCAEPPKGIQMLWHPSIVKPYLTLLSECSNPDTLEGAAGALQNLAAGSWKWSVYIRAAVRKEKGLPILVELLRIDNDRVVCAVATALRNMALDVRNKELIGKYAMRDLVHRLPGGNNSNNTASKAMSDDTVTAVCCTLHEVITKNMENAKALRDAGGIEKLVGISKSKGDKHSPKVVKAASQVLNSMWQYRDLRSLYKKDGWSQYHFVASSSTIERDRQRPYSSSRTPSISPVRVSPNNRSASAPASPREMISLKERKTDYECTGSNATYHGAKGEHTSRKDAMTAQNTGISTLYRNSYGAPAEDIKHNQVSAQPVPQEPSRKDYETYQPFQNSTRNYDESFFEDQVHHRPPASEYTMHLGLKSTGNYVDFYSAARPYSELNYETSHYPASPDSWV
Text: as §1

Measured: binding result

B1: GST (other)
chain: not shown
notes: Control, immobilized on glutathione-Sepharose beads
no binding: all assays above

— US20040038212A1 (Chugai, published 2004)
